Here are results for 72 compounds from PubChem BioAssay AID488969 (Vanderbilt High Throughput Screening Facility, 2010).

In all, about 110,000 compounds were measured (“z-score”: median about -0.1, highest 2% from about 2 on). The list shows a part of the results. The source made the active and inactive calls.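 Rule for the calls: active = z-score in the third read window above 3 or below -3; inactive = the rest.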

The test addresses Metabotropic glutamate receptor 8 (Rattus norvegicus) (UniProt P70579). The test is described as follows: rat mGluR8 modulators via GIRK flux, primary screen, cell-based, thallium flux, HTS (AID 488969). Conditions: HEK293 rat mGluR8, GIRK (G protein-gated inwardly rectifying potassium channel) thallium flux, FluoZin2; at 10 µM; stronger effect = higher value; submaximal glutamate (EC20) added with thallium.
Sequence of UniProt P70579 (P70579 whole entry, looked up): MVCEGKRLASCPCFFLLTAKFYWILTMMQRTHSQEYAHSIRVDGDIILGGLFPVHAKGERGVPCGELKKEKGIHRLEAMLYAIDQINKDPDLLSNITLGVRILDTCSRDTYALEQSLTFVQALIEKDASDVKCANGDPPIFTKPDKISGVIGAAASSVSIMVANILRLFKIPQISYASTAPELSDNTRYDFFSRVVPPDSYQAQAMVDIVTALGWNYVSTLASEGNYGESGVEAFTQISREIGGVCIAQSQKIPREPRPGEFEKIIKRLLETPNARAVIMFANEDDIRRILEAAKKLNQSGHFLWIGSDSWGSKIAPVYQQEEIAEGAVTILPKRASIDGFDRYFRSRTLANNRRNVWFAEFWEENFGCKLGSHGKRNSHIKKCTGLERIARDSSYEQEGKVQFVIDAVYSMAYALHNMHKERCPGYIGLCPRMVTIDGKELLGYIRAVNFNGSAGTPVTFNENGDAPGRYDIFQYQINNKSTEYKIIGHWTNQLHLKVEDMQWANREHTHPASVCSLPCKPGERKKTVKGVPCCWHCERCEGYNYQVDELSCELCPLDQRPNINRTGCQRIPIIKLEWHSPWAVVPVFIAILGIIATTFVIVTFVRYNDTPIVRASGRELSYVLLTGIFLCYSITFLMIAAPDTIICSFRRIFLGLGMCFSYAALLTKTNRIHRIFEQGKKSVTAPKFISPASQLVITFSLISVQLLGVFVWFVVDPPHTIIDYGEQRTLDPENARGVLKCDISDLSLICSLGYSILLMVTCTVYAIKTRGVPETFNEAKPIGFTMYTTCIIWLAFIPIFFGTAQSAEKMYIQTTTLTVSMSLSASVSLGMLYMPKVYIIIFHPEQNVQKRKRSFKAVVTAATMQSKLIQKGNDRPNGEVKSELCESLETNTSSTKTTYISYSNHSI
`N#CC(C#N)=C1C=CC=CN1/C(=C\c1ccccc1)C(=O)c1cccs1`: the z-score is -0.0557.

`CCOc1ccc(NC(=O)CN(C)CC(=O)NC2CCCc3ccccc32)cc1OCC` (configuration not stated) gave a z-score of -1.47.

On to `CCOc1cnn(-c2cc(Oc3ccc(C)cc3)ncn2)c(=O)c1Cl`, for which the z-score is -0.1.

In the case of `O=C(C(NS(=O)(=O)c1cccc2nsnc12)c1ccccc1)N1CCN(c2ccccn2)CC1` (configuration not stated), the z-score was 0.582.

Compound `Cc1cc(C)nc(NS(=O)(=O)c2ccc(NC(=O)c3cc(-c4ccccc4)nc4ccccc34)cc2)n1` registered a z-score of -0.762.

Take `COc1cccc(C(=O)N(Cc2nc(-c3cccc(C)c3)no2)C(C)C)c1OC`: the z-score is -0.901.

With `O=C1c2cccc3c(N4CCCCC4)ccc(c23)C(=O)N1CCO`, the z-score is -0.897.

In the case of `Cc1cc(C)n(-c2nc(N(c3ccccc3)c3ccccc3)nc(-n3nc(C)cc3C)n2)n1`, the z-score was -0.0469.

With `CC(C)NC(=O)NC(=O)COc1ccc(Br)cc1Br`, the z-score was -0.136.

For `CCCN1CCN(c2nc(-c3cccs3)nc3ccccc23)CC1`, the z-score is -0.0799.

The compound `Cn1cccc1CNC(=O)Nc1ccc(Cl)cc1` showed a z-score of -0.0852.

In turn, `Cc1noc(C)c1COC(=O)c1ccccc1Oc1ccccc1` gave a z-score of -0.794.

`NC(=O)CN1CCN(C(=O)NC2CCCCC2)CC1`: the z-score worked out at 0.816.

`O=C(NCCC1=CCCCC1)C1CCN(C(=O)c2ccc(Cl)cc2)CC1` yielded a z-score of -0.116.

In turn, `COc1cccc(-c2ccc(C#N)c(SCC(=O)NCCc3ccc(Cl)cc3)n2)c1` displayed a z-score of -0.0669.

`CC(C)c1ccccc1NC(=O)c1cnccn1` displayed a z-score of 0.412.

As to `CCCn1c(=O)c2ccccc2n2c(SCc3nnc(-c4ccccc4Br)o3)nnc12`, the z-score is -0.0586.

The compound `CCCCCCCCOC(=O)CCn1[nH]c(=O)c2ccccc2c1=O` gave a z-score of -0.0523.

On to `COc1ccc(C)cc1NC(=O)CSc1nnc(-c2ccc(Br)cc2)o1`, for which the z-score was -0.0345.

In the case of `S=C1N(c2ccccc2)C(c2ccc(Cl)cc2)N2CCCN12` (configuration not stated), the z-score was -0.178.

Consider `CCOC(=O)c1cnn(-c2nc(-c3cccc(F)c3)cs2)c1C(F)(F)F`, for which the z-score turned out to be 0.0252.

The compound `Clc1ccc(C2=CC(c3ccco3)n3ncnc3N2)cc1` (configuration not stated) showed a z-score of -1.23.

`Cn1c(=O)oc2cc(C(=O)c3ccccc3)ccc21` returned a z-score of 0.456.

Consider `COc1ccc(NC(=S)NC(NC(=O)/C=C/c2ccccc2)C(Cl)(Cl)Cl)cc1` (configuration not stated), for which the z-score amounted to 1.83.

Compound `O=C(NC1CC2CCCC(C1)N2C(=O)N1CCCCC1)C1CCCCC1` (configuration not stated) gave a z-score of -0.162.

In turn, `COc1ccc2[nH]c3c(Cl)ncnc3c2c1` gave a z-score of -0.502.

For `CC(=O)Nc1ccc(C2=NNC(=NCC3CCCO3)SC2)cc1` (configuration not stated), the z-score is -0.285.

Regarding `Cc1cc(C(=O)c2cnc(/N=C/N(C)C)s2)cc(C)c1O`, the z-score is -0.294.

As for `O=C(NC1=NCCS1)C1CC(=O)N(c2ccc(F)cc2)C1` (configuration not stated), the z-score is -0.0781.

Compound `COC(=O)c1ccc(C)c(NC(=S)NCc2ccc(Cl)cc2)c1` had a z-score of 0.0221.

Compound `CCOc1ccc(-n2c(=S)sc3c(=O)[nH]c(SCC(=O)NCc4ccco4)nc32)cc1` came in with a z-score of -0.78.

Consider `CC(C)(C)c1ccc(C(=O)Nc2ccc(CC(=O)O)cc2)o1`, for which the z-score was -0.0938.

Compound `CCN(C(=S)Nc1cccc(C)c1)c1ccccc1` displayed a z-score of -0.0813.

`CCn1c2ccccc2c2cc(/C=N/n3c(C)nnc3C)ccc21` came in with a z-score of -1.04.

For the compound `CCn1cc([N+](=O)[O-])c(C(=O)Nc2c(C)nn(Cc3cccc(F)c3)c2C)n1`, the z-score is -0.443.

As for `CCCn1c(C)cc(/C=C(\C#N)C(=O)OCC(=O)NC(=O)NC(C)(C)C)c1C`, the z-score is 0.103.

For the compound `CN1CCN(Cc2nc3ccccc3c(=O)n2Cc2nc(-c3ccc([N+](=O)[O-])cc3)cs2)CC1`, the z-score is -0.753.

`OC(C#CCN1CCOCC1)(c1ccccc1)C1CCCCC1` (configuration not stated) displayed a z-score of -0.455.

Compound `NNC(=O)c1cccc(COc2ccc(Br)cc2)c1` registered a z-score of -0.203.

Compound `O=C(CSc1nc2ccccc2s1)NNC(=S)Nc1ccc(Br)cc1` yielded a z-score of 0.333.

With `CCCc1cc(=O)[nH]c(SCC(=O)N2CCN(c3ccc(F)cc3)CC2)n1`, the z-score was -0.0759.

`CCOc1cc(C2C3=C(CCCC3=O)N(C)C3=C2C(=O)CCC3)cc(Cl)c1O` showed a z-score of -0.524.

Consider `CSc1nncc(/C(C)=N\Nc2ccccc2)n1`, for which the z-score was -0.248.

As for `CCCn1c(C)cc(=O)c2cc(NC(=O)c3cnccn3)ccc21`, the z-score is -0.106.

Compound `CS(=O)(=O)N1CCC(C(=O)NCc2ccncc2)CC1` displayed a z-score of -1.79.

For the compound `COC(=O)CCc1sc(Nc2ccc(Br)cc2)nc1-c1ccc(OC)cc1`, the z-score was -0.384.

`OC(COCC1COc2ccccc2O1)CN1CCN(c2ccccn2)CC1` (configuration not stated) registered a z-score of -0.273.

For the compound `Cc1ccc(O)c(N=Cc2sc3ccccc3c2Cl)c1`, the z-score is 0.165.

With `COc1ccccc1C1C2=C(N=C3SCC(=O)N31)c1ccccc1CC2` (configuration not stated), the z-score amounted to 0.547.

The compound `Cc1c(C(=O)N/N=C/c2cccnc2)sc(=S)n1C` yielded a z-score of 0.419.

Compound `CCSc1nn2c(=O)c3ccccc3nc2s1` displayed a z-score of -0.322.

Consider `COc1ccc(-n2c(Cc3cccn3C)nnc2SCC(=O)Nc2cccc(NC(C)=O)c2)cc1`, for which the z-score was -0.951.

With `O=C(Nc1ccc(-c2nc3ccccc3o2)cc1)c1cccnc1`, the z-score is -0.828.

On to `O=C(NCc1ccccc1)NC(=O)c1ccncc1`, for which the z-score was found to be 1.53.

For the compound `CC(C)Cn1c(SCc2nc3ccccc3c(=O)[nH]2)nc2ccccc2c1=O`, the z-score is -0.382.

As to `C=CCn1c(SCC(=O)Nc2sccc2C(N)=O)nc2ccc(Cl)cc2c1=O`, the z-score is active: 5.23.

The compound `c1ccc2nc3c(cc2c1)CCCCCC3` yielded a z-score of -0.0331.

The compound `Cc1ccc(CC(=O)NCCS(=O)c2ccc(Cl)cc2)cc1` (configuration not stated) gave a z-score of -0.137.

Take `COC(=O)c1ccc2c(c1)C(C)(C)C(/C=C/c1ccc(OC)c(OC)c1OC)=[N+]2C`: the z-score was -0.795.

As to `O=C(c1cc2sccc2n1Cc1ccccc1)N1CCCc2ccccc21`, the z-score is -0.795.

The compound `NC(=O)C1CCN(CCC(=O)Nc2ccc(Br)cc2)CC1` had a z-score of 0.0596.

`Cc1cccc(N2C(=O)C(Oc3ccc(Cl)cc3Cl)C2C=O)c1C` (configuration not stated): the z-score is -0.151.

In turn, `O=C(CSc1nc2c(c(=O)n1-c1ccc(Cl)cc1)SCC2)N1CCOCC1` had a z-score of -0.856.

In the case of `CCOc1c2ccc(C(=O)NCc3ccco3)cc2nn1CCOC`, the z-score is -0.138.

In the case of `COc1cc(S(=O)(=O)NCc2ccc3c(c2)OCO3)ccc1Cl`, the z-score is -0.257.

In turn, `Cc1cc(C(=O)Nc2ccc(S(=O)(=O)N3CCCC3)cc2)cs1` yielded a z-score of -0.157.

Compound `CCn1c2ccccc2c2cc(NC(=O)c3ccccc3[N+](=O)[O-])ccc21` gave a z-score of 0.156.

The compound `Cc1cc(C)nc(N(C#N)CC(=O)Nc2ccccc2)n1` returned a z-score of -0.0517.

`COCCNC(=O)c1cc2ncc(Br)cn2n1` gave a z-score of 0.00586.

Compound `CCN(CC)c1ccc(NC(=O)CCNC(=O)c2ccco2)cc1` registered a z-score of -0.285.

With `O=C(Nc1ccccn1)c1ccc(COc2ccccc2Cl)o1`, the z-score was -1.26.

`COC(=O)c1ccc(C(=O)OC)c(NC(=O)COC(=O)C2CCCCC2)c1` yielded a z-score of -0.334.
